The source gives no read counts; variants with many changes may rest on few reads.
B1: LINE1-mini (parent)
chain: GGCAGAGCUCAACACAGCGUGGCAAAGUGGCUGUGGCUAGACUGCC

Variants of: B1
Experiment: self-cleavage, relative activity (ratio to wild type); higher = more cleavage; in vitro, sequencing; the parent is a self-cleaving ribozyme

Variant	self-cleavage
GGCAGAGCUUAACAUAGCAUGACAAAGUGGCUGUGGCUAGAGUGCC	0.02
GGCAGAGCUCAUCACAACGUGGCAAAGUGGCUGUCGCUAGACUGCC	0.21
GACAGAGCUCAACAAAGCGUGGCAAAGUGGCUGUGGCAAGACUGCC	0.17
GGCAGAGCUCAACACAGCGAGGCAAAGUGGCUAUGGAUAGACUGCC	0.06
GGCAGAUCUCAAUACAGCGUGGCAAUGUGGCUGUGGCUAGACUGCC	0.1
GGCAGAGCUCAACACAUCGUGGCAAAGGGGCUGUGGCUAGCAUGCC	0.08
GACAGAGCUCAAUACAGAGUAGCAAAGUGGCUGUGGCUAGAAUGCC	0.06
GGCAGAGCUCAAAACAGCUUGGCAAAGUGGAUGUUGCUAUACUGCC	0.08
GGCAGAGCUCAACACAGCGUGGCAAAGCGGCUGUGGCUAGCUUGCC	0.01
GGCAGAGCUCAACACAGCGAGAAAAAGUGGCUGUGGGUAGACUGCC	0.03
GGCAGAGCUUAACACAGAGUGGCAAAGUGUCUUUGGCUAGACUUCC	0.04
GGCAGAGUUCAACACAGGGUGGCAAAGUGGCUGCGGCUAGACUGCC	0.06
GGCAGAGCUCACCACAGCGUGGCGAAGUGGCAGUGGCUCGACUGCC	0
GACAGAGCUCAACACAGCGUUGCAAAGUGGCUGUUGCUACACUGCC	0.13
GGCAGAGCGCAAAACAGCGUGGCAAAUUGGCUGUGGCUAGACUGCC	0.12
GGCUGAGCUCAACACAGCGUGGCAAAGUGUCUGUGGCUAUACUGCC	0.18
GGCAGAGCUCAACACCACGUGGCAAAGUGACUGUGGCUAGACUGCC	0.06
GCCAGAGCUCUACACAGCGUGCCAAAGUGGCUGUGACUAGACUGCC	0.02
GGAAGAGCUCCACACAGCGAGUCUAAGUGGCUGUGGCUAGACUGCC	0.04

Variant	self-cleavage
GCCAGGGUUCAGCACUGCGUGGCAAAGUGCCUGUGGCUAGACUGCA	0.07
GGCAGAGCUCAACACAGCGUGGCAAAGUGGGUGUAGCCAGACGGUC	0
GGCAGAUCUCAAAAUAGCGUGGCAAAGUGGCUGUGGCUAGUGUGCC	0.33
AGCAGAGCUUAACACAACGUGGCAAAGUGGCUGUGGCUAGACUGGC	0.05
AGCAGAGCUCUACACAGCGUGGCAAAAUUGCUGUAGCUAGACUGCC	0.01
GGGAGAGCUCAACUCCGCGUGGCAAAGUGGCUGUGGCUAGACUGCC	0.14
GGCAGAGCACAACACGGCGUGGCAGAGUGGCUGUGCCUAGACUGCC	0.01
GGCAGAGCUCAACACAGCGUGGAAAAGAGGCUGUGGCUAGAUUGCC	0.08
GGCAGAGCUCAACACAGCGUGGAACAGUGGCUGUGGCUAGCCUACC	0.06
GGCAGAGCUUAACACAGCUUGGCAAAUUGGCUGUGGCUAUACUGCC	0.02
GGCAUAGCUCAACACAGCGUGACAAAGUGGCGGUGGCUAGGCUGCC	0.02
AGCAGAGCUCGACACAGCGUGGCAAAGUGGCUGUGGGUAGACUGCC	0.01
GGCAUAGCUAAACAUAGCGUGGCAAGGUGGCUGUGACUAGACUGCC	0.01
GGCAGAGCUCAUCACAGCGUGGCAAAGUGGCUGUGGCGAGAAUGCC	0.01
CGCAGAGCCCAACACAGCGUGGCAAAGUGGCUAUGGCUAGACUGCC	0.02
GGCAGAGUUCAGCACAGCGUGGUAAAGUGGCUGUGGCUAGAUACCC	0.02
GGUAGAGCUAGACACAGCGUGGCGAAGUGGCUAUGGCUAGACUGCC	0.01
GGCUGAGCUCAACCUAGCGUGGUAAAGUGGCUGUGGCUAGACUGCC	0.1
GAUAGAGCUCGACACAGCGUGGCAAAGUGGCUGUGGCUAGACUGCC	0.04

Variant	self-cleavage
CGCAGCGCUCAACACAGCGUGGCAGAGUGUCUGUGGUUAGACUGCC	0
GGCAGAGCUCAACACAGCGUGGCAAUGUGGCGGUGGAUAGACUGCC	0.04
AGCAGAGCUCAACACAGCGUGGCAAAGUGGCUGUGGCCAGAAUCAC	0.05
GGCAGAGCUCAACACAGCGUGGCGAAGCGACUGUGGCUAGACUGCC	0.59
GGAAGAGCUCAACACAACGUGGCAAAGUGGCUAUGGCUAGACUGCA	0.16
GGCAGAGCUCAACAUAGCGUGACAAAGUGGCUGUGCCCAGACUGCC	0.03
GGCAGAUCUCAACACAGCGUAGCAAACUGGCUGUGGCUACACUGCC	0.2
GGCAGAGUUCAUGACAGCGUGGCAAAGUGGCUGUGGCUAGACUGCC	0.04
GGCAGAGCUCAACACAGUGUGGCAACGUGGCUGUGGCUAGAUUGCC	0.55
UGCAGAGCUCAACACAGUGUGGCAAAGUGGUUGUGGCUAGACUGCC	0.01
GGCACAGCUGAACAGAGCGUUGCAAAGUGGCUGUGGCUAGACUGCC	0.01
GGCAGAGCUCAACACAGCGCGGCAAAGUGGCUGUUGCUAGACUGGC	0
GGCGGAACUUAACACAGCGUGGCAAAUUGGCUGCGGCUAGACUGCC	0.05
GGCAGAGCUCAACACAGCGUGGCAAAGUGGAUCUGGAUAGACUGUC	0.08
GGCUCAGCUCAACACAGCGUGGCAAAGUGGAUGUGGCUAGACUGCC	0.07
GGCAGAGCUCAUCAAAGCGUACCAAAGUGGCUGUGGCUAGACUGCC	0.06
CGCACAGCUCAACACAGCGUGGCAAAGUGGCUGUGGCUAGAAUGCC	0
GGCAGAGCUCAACACAGGGUGGAAAAGUUGCGGUGGCUAGACUGCC	0.05

— the RNAGym collection of RNA variant scans (doi:10.7554/elife.90254)
